Results from PMC4764940.
These are yes or no findings as the source states them, for the method shown. In cells and extracts the contact can be indirect. Some binding calls cover weakened binding; strength is not graded here. For some of these results: Tags and fused reporters may be left off the sequences shown.

Sequences of proteins named here, by UniProt entry; tags and fusion partners are left off.
UniProt Q7Z434: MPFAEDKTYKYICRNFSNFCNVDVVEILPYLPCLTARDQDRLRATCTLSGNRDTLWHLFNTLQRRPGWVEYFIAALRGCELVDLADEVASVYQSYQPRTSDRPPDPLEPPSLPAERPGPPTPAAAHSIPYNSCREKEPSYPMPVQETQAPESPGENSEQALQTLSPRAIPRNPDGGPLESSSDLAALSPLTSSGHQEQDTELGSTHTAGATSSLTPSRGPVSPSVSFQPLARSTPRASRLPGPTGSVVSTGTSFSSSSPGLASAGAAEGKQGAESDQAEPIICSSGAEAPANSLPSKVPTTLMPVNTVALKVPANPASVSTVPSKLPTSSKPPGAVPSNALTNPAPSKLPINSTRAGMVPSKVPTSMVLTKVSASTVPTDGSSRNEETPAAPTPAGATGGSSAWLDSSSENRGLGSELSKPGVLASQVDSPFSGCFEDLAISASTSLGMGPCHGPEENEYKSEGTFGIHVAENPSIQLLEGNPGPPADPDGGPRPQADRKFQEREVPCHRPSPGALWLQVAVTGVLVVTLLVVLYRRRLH

Legend:
[1] = target: T1, HA-tagged pyruvate carboxylase (PC) (human) (UniProt P11498); assay: co-IP; HEK293T cells co-transfected with HA- and Flag-tagged expression plasmids for 48 h; co-immunoprecipitation and immunoblot with the indicated antibodies
T1 sequence: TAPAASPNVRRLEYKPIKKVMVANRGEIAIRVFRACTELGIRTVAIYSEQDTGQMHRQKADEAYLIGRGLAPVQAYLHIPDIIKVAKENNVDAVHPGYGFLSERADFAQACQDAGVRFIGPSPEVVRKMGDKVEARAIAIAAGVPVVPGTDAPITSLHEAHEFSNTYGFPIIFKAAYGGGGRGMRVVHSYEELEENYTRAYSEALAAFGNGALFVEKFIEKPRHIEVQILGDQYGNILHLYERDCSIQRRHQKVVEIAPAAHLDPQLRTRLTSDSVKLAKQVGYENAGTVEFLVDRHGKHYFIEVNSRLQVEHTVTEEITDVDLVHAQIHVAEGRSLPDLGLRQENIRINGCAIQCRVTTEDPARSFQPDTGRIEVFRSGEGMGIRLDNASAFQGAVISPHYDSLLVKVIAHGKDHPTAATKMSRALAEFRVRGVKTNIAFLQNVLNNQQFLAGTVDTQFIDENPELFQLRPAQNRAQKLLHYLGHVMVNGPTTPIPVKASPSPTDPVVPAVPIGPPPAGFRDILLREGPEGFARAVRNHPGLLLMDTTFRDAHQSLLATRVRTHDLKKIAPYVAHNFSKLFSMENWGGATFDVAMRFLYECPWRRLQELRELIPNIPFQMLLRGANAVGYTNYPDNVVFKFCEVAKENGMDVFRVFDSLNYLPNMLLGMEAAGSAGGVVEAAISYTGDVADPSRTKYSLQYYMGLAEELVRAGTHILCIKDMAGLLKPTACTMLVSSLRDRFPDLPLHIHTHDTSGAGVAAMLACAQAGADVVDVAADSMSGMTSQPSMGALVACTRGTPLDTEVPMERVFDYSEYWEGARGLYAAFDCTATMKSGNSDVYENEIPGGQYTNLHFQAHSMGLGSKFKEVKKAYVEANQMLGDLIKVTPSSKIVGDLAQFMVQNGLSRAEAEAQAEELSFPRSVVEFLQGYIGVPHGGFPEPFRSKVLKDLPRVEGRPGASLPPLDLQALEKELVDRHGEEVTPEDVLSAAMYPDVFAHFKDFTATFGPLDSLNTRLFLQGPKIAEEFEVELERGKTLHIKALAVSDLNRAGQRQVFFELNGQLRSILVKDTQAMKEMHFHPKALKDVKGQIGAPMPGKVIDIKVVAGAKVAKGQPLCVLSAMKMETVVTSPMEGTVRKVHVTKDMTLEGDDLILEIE

[2] = target: T2, endogenous pyruvate carboxylase (PC) (human (endogenous in 293T and A549)) (UniProt P11498); assay: co-IP; A549 cells transfected with PC or vector plasmids for 24 h, SeV (MOI = 1) or uninfected for 12 h; co-immunoprecipitation and immunoblot with MAVS, PC or TRAF6 antibodies
T2 sequence: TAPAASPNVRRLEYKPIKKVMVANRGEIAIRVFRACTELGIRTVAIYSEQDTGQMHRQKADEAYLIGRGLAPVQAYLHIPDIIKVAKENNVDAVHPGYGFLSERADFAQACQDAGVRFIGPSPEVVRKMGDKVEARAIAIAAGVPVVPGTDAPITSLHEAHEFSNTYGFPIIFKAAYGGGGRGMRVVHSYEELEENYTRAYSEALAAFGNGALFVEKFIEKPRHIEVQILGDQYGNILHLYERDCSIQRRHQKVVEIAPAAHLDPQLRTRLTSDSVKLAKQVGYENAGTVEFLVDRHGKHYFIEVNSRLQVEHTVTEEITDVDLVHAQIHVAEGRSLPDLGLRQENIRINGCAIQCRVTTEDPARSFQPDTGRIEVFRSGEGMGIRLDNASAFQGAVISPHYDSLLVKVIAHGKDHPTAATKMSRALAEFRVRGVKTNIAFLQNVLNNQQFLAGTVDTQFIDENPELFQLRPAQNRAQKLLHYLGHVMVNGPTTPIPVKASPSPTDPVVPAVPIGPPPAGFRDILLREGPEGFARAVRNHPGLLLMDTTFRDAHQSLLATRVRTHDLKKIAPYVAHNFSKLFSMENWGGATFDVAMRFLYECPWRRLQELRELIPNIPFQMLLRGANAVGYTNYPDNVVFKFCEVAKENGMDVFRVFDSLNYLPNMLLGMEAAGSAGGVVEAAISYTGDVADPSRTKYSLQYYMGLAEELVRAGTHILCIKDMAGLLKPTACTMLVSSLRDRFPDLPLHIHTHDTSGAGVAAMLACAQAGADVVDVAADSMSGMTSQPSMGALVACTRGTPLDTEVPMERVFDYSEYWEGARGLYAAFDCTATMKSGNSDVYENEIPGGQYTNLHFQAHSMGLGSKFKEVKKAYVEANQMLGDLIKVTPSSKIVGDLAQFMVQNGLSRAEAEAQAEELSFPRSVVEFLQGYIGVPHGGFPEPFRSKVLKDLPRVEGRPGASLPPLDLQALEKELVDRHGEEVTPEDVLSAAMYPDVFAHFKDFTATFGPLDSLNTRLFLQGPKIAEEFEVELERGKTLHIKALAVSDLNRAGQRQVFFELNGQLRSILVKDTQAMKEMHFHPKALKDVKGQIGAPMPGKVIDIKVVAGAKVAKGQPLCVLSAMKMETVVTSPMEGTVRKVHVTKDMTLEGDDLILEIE

[3] = target: T2, endogenous pyruvate carboxylase (PC) (human (endogenous in 293T and A549)); assay: co-IP; mitochondrial extracts of 293T cells (SeV MOI = 1 for 12 h or uninfected), mitochondria lysed in RIPA buffer; endogenous proteins, MAVS and PC antibodies
[4] = target: T3, Flag-tagged pyruvate carboxylase (PC) (human) (UniProt P11498); assay: co-IP; HEK293T cells co-transfected with HA- and Flag-tagged expression plasmids for 48 h; co-immunoprecipitation and immunoblot with the indicated antibodies
T3 sequence: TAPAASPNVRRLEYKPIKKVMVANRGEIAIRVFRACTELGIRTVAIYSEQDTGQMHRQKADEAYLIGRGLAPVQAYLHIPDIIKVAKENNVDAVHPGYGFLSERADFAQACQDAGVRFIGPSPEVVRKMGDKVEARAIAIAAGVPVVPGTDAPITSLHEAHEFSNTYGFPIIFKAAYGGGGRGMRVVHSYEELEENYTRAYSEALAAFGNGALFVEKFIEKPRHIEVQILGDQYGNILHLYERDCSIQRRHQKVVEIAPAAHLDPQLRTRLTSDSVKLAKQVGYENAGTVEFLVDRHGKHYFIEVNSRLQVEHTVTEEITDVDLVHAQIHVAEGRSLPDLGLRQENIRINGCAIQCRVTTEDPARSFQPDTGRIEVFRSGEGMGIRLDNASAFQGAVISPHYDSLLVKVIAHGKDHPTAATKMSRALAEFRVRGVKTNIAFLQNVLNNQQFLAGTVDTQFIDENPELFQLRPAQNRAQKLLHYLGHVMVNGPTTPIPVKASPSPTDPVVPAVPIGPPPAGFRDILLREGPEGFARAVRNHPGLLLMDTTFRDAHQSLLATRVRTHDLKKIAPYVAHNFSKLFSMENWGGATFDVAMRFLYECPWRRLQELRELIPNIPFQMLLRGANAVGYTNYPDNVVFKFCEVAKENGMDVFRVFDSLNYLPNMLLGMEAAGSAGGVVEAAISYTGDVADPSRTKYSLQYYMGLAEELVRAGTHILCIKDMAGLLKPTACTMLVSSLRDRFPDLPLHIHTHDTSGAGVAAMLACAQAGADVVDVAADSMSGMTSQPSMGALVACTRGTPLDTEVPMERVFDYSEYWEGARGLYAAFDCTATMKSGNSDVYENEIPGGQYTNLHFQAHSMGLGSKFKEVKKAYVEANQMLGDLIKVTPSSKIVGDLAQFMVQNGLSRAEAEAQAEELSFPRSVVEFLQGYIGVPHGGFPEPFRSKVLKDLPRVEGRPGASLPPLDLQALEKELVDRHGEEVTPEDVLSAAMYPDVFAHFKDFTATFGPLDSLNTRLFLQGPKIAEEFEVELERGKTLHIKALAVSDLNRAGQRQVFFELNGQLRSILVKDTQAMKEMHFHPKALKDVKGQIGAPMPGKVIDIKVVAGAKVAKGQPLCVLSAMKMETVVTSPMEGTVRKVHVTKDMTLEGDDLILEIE

For “Flag-tagged MAVS (mitochondrial antiviral signaling protein) (from UniProt Q7Z434 1-540)”, the binding [1] was “binds”.

For “endogenous MAVS (from UniProt Q7Z434 1-540)”, the binding [2] was “binds” and the binding [3] was “binds”.

B1: HA-tagged TRAF6 aa 289–522 fragment (domain or fragment, UniProt Q9Y4K3 289-522)
chain: ISEVRNFQETIHQLEGRLVRQDHQIRELTAKMETQSMYVSELKRTIRTLEDKVAEIEAQQCNGIYIWKIGNFGMHLKCQEEEKPVVIHSPGFYTGKPGYKLCMRLHLQLPTAQRCANYISLFVHTMQGEYDSHLPWPFQGTIRLTILDQSEAPVRQNHEEIMDAKPELLAFQRPTIPRNPKGFGYVTFMHLEALRQRTFIKDDTLLVRCEVSTRFDMGSLRREGFQPRSTDAGV
For B1, the binding [4] was “binds”.

B2: HA-tagged TRAF6 aa 358–522 fragment (domain or fragment, UniProt Q9Y4K3 358-522)
chain: GNFGMHLKCQEEEKPVVIHSPGFYTGKPGYKLCMRLHLQLPTAQRCANYISLFVHTMQGEYDSHLPWPFQGTIRLTILDQSEAPVRQNHEEIMDAKPELLAFQRPTIPRNPKGFGYVTFMHLEALRQRTFIKDDTLLVRCEVSTRFDMGSLRREGFQPRSTDAGV
With B2 the binding [4] was “binds”.

B3: HA-tagged TRAF6 aa 1-357 fragment (domain or fragment, UniProt Q9Y4K3 1-357)
chain: MSLLNCENSCGSSQSESDCCVAMASSCSAVTKDDSVGGTASTGNLSSSFMEEIQGYDVEFDPPLESKYECPICLMALREAVQTPCGHRFCKACIIKSIRDAGHKCPVDNEILLENQLFPDNFAKREILSLMVKCPNEGCLHKMELRHLEDHQAHCEFALMDCPQCQRPFQKFHINIHILKDCPRRQVSCDNCAASMAFEDKEIHDQNCPLANVICEYCNTILIREQMPNHYDLDCPTAPIPCTFSTFGCHEKMQRNHLARHLQENTQSHMRMLAQAVHSLSVIPDSGYISEVRNFQETIHQLEGRLVRQDHQIRELTAKMETQSMYVSELKRTIRTLEDKVAEIEAQQCNGIYIWKI
With B3 the binding [4] was “binds weakly”.

B4: HA-tagged TRAF6 aa 1-288 fragment (domain or fragment, UniProt Q9Y4K3 1-288)
chain: MSLLNCENSCGSSQSESDCCVAMASSCSAVTKDDSVGGTASTGNLSSSFMEEIQGYDVEFDPPLESKYECPICLMALREAVQTPCGHRFCKACIIKSIRDAGHKCPVDNEILLENQLFPDNFAKREILSLMVKCPNEGCLHKMELRHLEDHQAHCEFALMDCPQCQRPFQKFHINIHILKDCPRRQVSCDNCAASMAFEDKEIHDQNCPLANVICEYCNTILIREQMPNHYDLDCPTAPIPCTFSTFGCHEKMQRNHLARHLQENTQSHMRMLAQAVHSLSVIPDSGY
B4 was tested, and the binding [4] was “no binding”.
